The results in this text go back to publication PMC4336329 (PLoS ONE, 2015).

About 14,000 (4.5%) of roughly 310,000 compounds showed an effect of 50% or more. The effect is printed as a negative number. Some of the results follow.
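Further: peak tail current of the secondary pulse compared with the same well before compound.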

The target in the assay is human ether-à-go-go-related gene (hERG) potassium channel (human, UniProt Q12809). Nature of the assay: primary screen, population patch clamp on CHO cells stably expressing hERG.
Chain of human ether-à-go-go-related gene (hERG) potassium channel (Q12809 whole entry, looked up): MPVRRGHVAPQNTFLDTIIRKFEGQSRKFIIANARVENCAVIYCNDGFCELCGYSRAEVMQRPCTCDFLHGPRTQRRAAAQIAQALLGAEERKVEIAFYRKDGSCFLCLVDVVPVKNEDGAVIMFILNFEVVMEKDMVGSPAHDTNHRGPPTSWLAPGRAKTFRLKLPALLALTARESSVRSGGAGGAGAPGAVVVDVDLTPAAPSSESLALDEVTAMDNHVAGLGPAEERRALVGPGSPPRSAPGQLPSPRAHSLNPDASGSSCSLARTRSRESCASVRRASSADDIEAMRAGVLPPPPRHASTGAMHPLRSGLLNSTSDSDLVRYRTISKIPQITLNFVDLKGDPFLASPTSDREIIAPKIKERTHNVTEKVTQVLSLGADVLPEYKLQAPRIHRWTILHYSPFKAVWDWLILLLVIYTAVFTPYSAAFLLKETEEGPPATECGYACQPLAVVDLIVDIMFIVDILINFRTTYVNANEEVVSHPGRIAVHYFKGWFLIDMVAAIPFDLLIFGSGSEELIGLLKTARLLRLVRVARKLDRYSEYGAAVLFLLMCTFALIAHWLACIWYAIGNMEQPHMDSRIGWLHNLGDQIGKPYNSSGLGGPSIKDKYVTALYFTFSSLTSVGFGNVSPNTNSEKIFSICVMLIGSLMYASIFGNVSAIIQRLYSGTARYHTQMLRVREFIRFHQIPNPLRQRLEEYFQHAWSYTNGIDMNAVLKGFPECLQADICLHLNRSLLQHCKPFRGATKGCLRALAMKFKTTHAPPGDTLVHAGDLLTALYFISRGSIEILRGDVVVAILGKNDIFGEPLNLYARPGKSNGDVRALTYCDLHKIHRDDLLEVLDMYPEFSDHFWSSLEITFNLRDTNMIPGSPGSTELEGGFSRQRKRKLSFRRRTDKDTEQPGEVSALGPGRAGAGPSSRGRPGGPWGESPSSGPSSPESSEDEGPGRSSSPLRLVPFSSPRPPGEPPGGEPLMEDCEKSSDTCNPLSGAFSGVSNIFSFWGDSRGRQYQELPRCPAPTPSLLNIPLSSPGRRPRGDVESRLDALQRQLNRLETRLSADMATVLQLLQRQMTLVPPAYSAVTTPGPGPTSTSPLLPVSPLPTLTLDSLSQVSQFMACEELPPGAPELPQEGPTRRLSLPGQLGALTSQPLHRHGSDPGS
For `Cc1ccc(S(=O)(=O)N2[C@@H](c3ccccc3F)C(C(=O)O)=CC[C@H]2c2ccc(Cl)c(Cl)c2)cc1`, the “hERG current change (%, negative = inhibition) at 10uM” value came out at 10.2%.

In the case of `COc1ccc(Cl)cc1C(=O)NCC(c1ccco1)N(C)C` (stereo not shown), the “hERG current change (%, negative = inhibition) at 10uM” value is -4.19%. Next, `Cc1ccc(S(=O)(=O)N/N=C/c2cccn2-c2ccc(Cl)cc2)cc1`: -9.61%; `O=C(NCc1ccccc1Cl)c1ccc2c(=O)n(CCCN3CCCC3=O)c(=S)[nH]c2c1`: -8.83%; `O=C(COC(=O)C1=COCCO1)Nc1ncc(Cl)cc1Cl`: -6.27%.

Regarding `CC(C)CSc1nnc2[nH]c(=O)cc(N)n12`, the “hERG current change (%, negative = inhibition) at 10uM” value is reported as 6.36%. For `CCCCc1c(O)nc(SCC(=O)Nc2ccc3c(c2)CCC3)[nH]c1=O`, the “hERG current change (%, negative = inhibition) at 10uM” value is 6.63%. As for `CCOC(=O)c1ccc(NS(=O)C23CC4CC(CC(C4)C2)C3)cc1` (stereo not shown), the “hERG current change (%, negative = inhibition) at 10uM” value was 11.2%. In the case of `CCn1c(COc2ccccc2)nnc1SCC(=O)c1cccc([N+](=O)[O-])c1`, the “hERG current change (%, negative = inhibition) at 10uM” value is -45.2%.

Take `C#CC(C)(CC)NC(=O)c1cc(OC)c(OC)c(OC)c1` (stereo not shown): the “hERG current change (%, negative = inhibition) at 10uM” value came to 7.83%. On to `COc1ccc([N+](=O)[O-])cc1NC(=O)C(C)OC(=O)c1cccnc1Cl` (stereo not shown), for which the “hERG current change (%, negative = inhibition) at 10uM” value is given as -19.6%.

For the compound `CC1CCCN(C(=O)Nc2ccc(Br)cc2Cl)C1` (stereo not shown), the “hERG current change (%, negative = inhibition) at 10uM” value is on record as -16.4%. On to `COc1ccc(-c2noc(CSc3nnc(CCc4ccccc4)n3-c3ccccc3)n2)cc1OC`, for which the “hERG current change (%, negative = inhibition) at 10uM” value is recorded as -11%. Consider `COc1ccc(CCNC(=O)CS(=O)Cc2nc(-c3cccs3)oc2C)cc1OC` (stereo not shown), for which the “hERG current change (%, negative = inhibition) at 10uM” value is on record as -11.9%. As for `N#Cc1c(Nc2ccccc2C(F)(F)F)s[nH]c1=O`, the “hERG current change (%, negative = inhibition) at 10uM” value is 8.33%. As for `OCC(C#CCN1CCCCC1)NCc1ccccc1` (stereo not shown), the “hERG current change (%, negative = inhibition) at 10uM” value is recorded as 13.9%. As to `COc1ccc(C(=S)Nc2ccccc2)cc1`, the “hERG current change (%, negative = inhibition) at 10uM” value is 12.5%.

Take `Cc1nc2sc(C(c3ccco3)N3CCC4(CC3)OCCO4)c(O)n2n1` (stereo not shown): the “hERG current change (%, negative = inhibition) at 10uM” value is recorded as 13%. In the case of `O=C(CC(=O)c1ccccc1)Nc1ccccn1`, the “hERG current change (%, negative = inhibition) at 10uM” value is on record as 11.7%. As to `O=C(COC(=O)C1CC1)Nc1ccc(Cl)cc1Cl`, the “hERG current change (%, negative = inhibition) at 10uM” value is recorded as 15.4%. Consider `O=C(COC(=O)c1ccc(F)cc1Cl)NC(=O)NC1CCCC1`, for which the “hERG current change (%, negative = inhibition) at 10uM” value is on record as -5.3%. For the compound `Cc1ccc(S(=O)(=O)NC(C(=O)Oc2ccc3c(C(F)(F)F)cc(=O)oc3c2)c2ccccc2)cc1` (stereo not shown), the “hERG current change (%, negative = inhibition) at 10uM” value is 3.04%. For `CC(C)C(=O)Nc1nnn(C)n1`, the “hERG current change (%, negative = inhibition) at 10uM” value was 0.556%. In the case of `Cc1ccc2c(C)nc(Nc3nc(CSc4nnnn4-c4ccccc4)cc(=O)[nH]3)nc2c1`, the “hERG current change (%, negative = inhibition) at 10uM” value was -37.6%. As for `Cn1nc(C(=O)Nc2cccc(C(F)(F)F)c2)c2ccccc2c1=O`, the “hERG current change (%, negative = inhibition) at 10uM” value is 10.2%. `CCCCC(=NCCc1c(C)[nH]c2ccc(OC)cc12)C1=C(O)CC(c2ccccc2)CC1=O` (stereo not shown): the “hERG current change (%, negative = inhibition) at 10uM” value is recorded as -0.374%. In the case of `COc1cc(OC)c(OC)cc1CN1CCC(O)CC1.Cl`, the “hERG current change (%, negative = inhibition) at 10uM” value worked out at 16.1%. Take `C=CCNC(=O)C(C)Sc1ccc(Cl)cc1` (stereo not shown): the “hERG current change (%, negative = inhibition) at 10uM” value is on record as 0.00948%. Turning to `CCOc1cc(/C=N/NC(=O)c2cccnc2)ccc1OCC(=O)N1CCOCC1`, the “hERG current change (%, negative = inhibition) at 10uM” value is on record as -7.96%. Take `COc1ccccc1OCCNC(=O)c1ccc2c(c1)OCCO2`: the “hERG current change (%, negative = inhibition) at 10uM” value is given as 10%. For `O=C(NC1CC1)c1cc(-c2ccc(Br)cc2)nc2ccccc12`, the “hERG current change (%, negative = inhibition) at 10uM” value came to 0.545%. Take `CC(=O)Nc1n[nH]c(S(=O)(=O)Cc2ccc(Cl)cc2Cl)n1`: the “hERG current change (%, negative = inhibition) at 10uM” value is 5.99%. Consider `CC(Sc1ncn[nH]1)C(=O)Nc1ccc(Cl)cn1` (stereo not shown), for which the “hERG current change (%, negative = inhibition) at 10uM” value is 2.06%. For the compound `CC(=O)Nc1ccc(NC(=O)C(C)OC(=O)CNS(=O)(=O)c2ccc(Br)cc2Cl)cc1` (stereo not shown), the “hERG current change (%, negative = inhibition) at 10uM” value came out at 8.47%.

Take `CCCSc1nnc(CSc2nc3ccccc3s2)n1-c1ccccc1`: the “hERG current change (%, negative = inhibition) at 10uM” value is listed as -4.12%. With `O=C(NCc1cc([N+](=O)[O-])ccc1O)c1cc(-c2ccncc2)nc2ccccc12`, the “hERG current change (%, negative = inhibition) at 10uM” value is on record as -22.5%.

Turning to `CCOC(=O)N1CCC(NC(=O)C2CCCN(S(=O)(=O)c3cccnc3)C2)CC1` (stereo not shown), the “hERG current change (%, negative = inhibition) at 10uM” value was determined as 4.47%. On to `CC(C)(C)NC(=O)NC(=O)COC(=O)Cc1coc2ccc3ccccc3c12`, for which the “hERG current change (%, negative = inhibition) at 10uM” value is on record as -7.95%.

For `Cc1nn(-c2ccccc2)c(C)c1NC(=O)COC(=O)CCCOc1ccccc1`, the “hERG current change (%, negative = inhibition) at 10uM” value amounted to 6.69%.

As for `O=C(CCSc1ccccc1)Nc1nnc(-c2cccs2)o1`, the “hERG current change (%, negative = inhibition) at 10uM” value is listed as 17.1%. Next, `CC(C)OC(=O)C1Cc2ccccc2CN1S(=O)(=O)c1cccs1` (stereo not shown): -6.37%; `CCc1ccc(C(C)NC(=O)c2cccs2)cc1` (stereo not shown): 1.18%. As for `O=C(NC1CC1)C1CC(=O)N(c2ccccc2)C1` (stereo not shown), the “hERG current change (%, negative = inhibition) at 10uM” value is 13.2%. `COCCn1c(SCC(=O)Nc2ccc(S(=O)(=O)N(C)C)cc2)nc2ccccc21`: the “hERG current change (%, negative = inhibition) at 10uM” value was -45.5%. Next, `CSCCC(NC(=O)c1ccc([N+](=O)[O-])cc1Cl)C(=O)OCC(=O)NCCCc1ccccc1` (stereo not shown): -57.8%; `CC(C)[C@H](NC(=O)[C@@H]1CSC2c3ccccc3C(=O)N21)C(=O)NC1CCCCC1` (stereo partly shown): 2.91%; `COc1ccccc1/C=C1\SC(=O)N(CCC(=O)N2CCCCC2CCO)C1=O` (stereo not shown): -2.53%. Take `CCOC(=O)C(=O)N(Nc1ccc(C)cc1)c1ccc(C)cc1`: the “hERG current change (%, negative = inhibition) at 10uM” value is reported as -16.5%. For the compound `COc1cc2c(cc1NC(=S)Nc1cccc(C(F)(F)F)c1)oc1ccccc12`, the “hERG current change (%, negative = inhibition) at 10uM” value was found to be 15.8%. Regarding `CCc1nonc1NC(=O)c1oc2ccc(C)cc2c1C`, the “hERG current change (%, negative = inhibition) at 10uM” value turned out to be 22.9%. As for `COc1ccccc1C(=O)NC(=O)COC(=O)C1CC1`, the “hERG current change (%, negative = inhibition) at 10uM” value is -9.84%. With `CCNC(=S)N=Nc1c(O)[nH]c2ccc(C(C)C)cc12`, the “hERG current change (%, negative = inhibition) at 10uM” value came out at 2.79%. For `COc1cccc(NC(=S)N(CCC(C)C)C(C)c2ccncc2)c1` (stereo not shown) the value was -12.8%; for `COc1cc(C)nc(SCC(N)=O)n1`, 7.26%; for `Cc1nonc1NC(=O)CSc1nc2c(C)cccc2cc1C#N`, 4.66%. `COc1cccc(C2=NC(C)(C)NC(c3ccccc3O)C2)c1` (stereo not shown): the “hERG current change (%, negative = inhibition) at 10uM” value was 2.64%. For `CC1CCCCN1C(=O)COC(=O)c1n[nH]c2ccccc12` (stereo not shown) the value was -4.91%. `CCS(=O)(=O)C1=NSC2=NC(=O)/C(=C\c3ccc(OS(=O)(=O)c4ccccc4)c(OC)c3)C(=N)N21`: the “hERG current change (%, negative = inhibition) at 10uM” value is reported as 14.5%.
